The supplement of paper PMC7826260
The other results are listed elsewhere or left out. Each Rep nickase domain was tested in vitro on the same pool of single strands (1 h at 37 °C, 3 µM enzyme); the outer parts of the 90-letter strands are left off. Uncut reads are compared with the no-enzyme pool on a log2 scale; the lower, the more was cut; hits are not called. Because reads are shares of a total, they shift together; values above 0 arise when much of the pool is cut.

Tests used:
Assay in all cases: uncleaved DNA left, log2 of reads against the no-enzyme library (log2 ratio); higher = less cleavage (more negative = more Rep cleavage of the k-mer); sequences stand for … in CTCGTCCG…ACCGGAGA
[1] = system: T1, Rep nickase domain of Muscovy duck circovirus
T1 sequence (residues 1-111 of Rep, tag left off): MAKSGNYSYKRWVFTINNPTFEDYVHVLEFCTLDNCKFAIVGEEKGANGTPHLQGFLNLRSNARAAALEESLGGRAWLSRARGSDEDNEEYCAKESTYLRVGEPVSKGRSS
Experimental: (§1)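 A pool of 90-nt single-stranded DNAs with seven random bases just before the constant AC of the nick site (name = the seven bases) was cut by 3 µM recombinant His6-SUMO-tagged Rep nickase domain (300 nM DNA, 50 mM HEPES pH 8.0, 50 mM NaCl, 1 mM MnCl2, 1 h, 37 °C, three replicates). Uncut DNA was amplified and sequenced.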

[2] = system: T2, Rep nickase domain of banana bunchy top virus
T2 sequence (residues 1-94 of Rep, tag left off): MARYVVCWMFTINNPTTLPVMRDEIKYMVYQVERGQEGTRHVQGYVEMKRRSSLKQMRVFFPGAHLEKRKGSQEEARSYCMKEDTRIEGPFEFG
Experimental: as §1

[3] = system: T3, Rep nickase domain of cabbage leaf curl virus
T3 sequence (residues 1-116 of Rep, tag left off): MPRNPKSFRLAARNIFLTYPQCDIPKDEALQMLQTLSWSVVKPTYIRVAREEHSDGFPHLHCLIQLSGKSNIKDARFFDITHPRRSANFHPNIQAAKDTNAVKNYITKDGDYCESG
Experimental: as §1

[4] = system: T4, Rep nickase domain of chickpea chlorotic dwarf virus
T4 sequence (residues 1-124 of Rep, tag left off): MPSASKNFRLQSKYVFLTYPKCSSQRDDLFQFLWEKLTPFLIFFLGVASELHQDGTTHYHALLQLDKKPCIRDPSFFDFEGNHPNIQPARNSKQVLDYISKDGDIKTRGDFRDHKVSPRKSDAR
Experimental: as §1

[5] = system: T5, Rep nickase domain of faba bean necrotic yellows virus
T5 sequence (residues 1-98 of Rep, tag left off): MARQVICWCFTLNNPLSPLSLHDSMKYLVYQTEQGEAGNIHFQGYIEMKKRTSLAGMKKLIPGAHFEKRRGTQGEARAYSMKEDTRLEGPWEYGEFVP
Experimental: as §1

[6] = system: T6, Rep nickase domain of maize striate mosaic virus
T6 sequence (residues 1-117 of Rep, tag left off): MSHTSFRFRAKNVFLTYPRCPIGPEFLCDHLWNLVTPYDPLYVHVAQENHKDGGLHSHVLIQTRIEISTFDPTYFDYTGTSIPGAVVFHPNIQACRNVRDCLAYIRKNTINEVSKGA
Experimental: as §1

[7] = system: T7, Rep nickase domain of porcine circovirus 2
T7 sequence (residues 2-116 of Rep, tag left off): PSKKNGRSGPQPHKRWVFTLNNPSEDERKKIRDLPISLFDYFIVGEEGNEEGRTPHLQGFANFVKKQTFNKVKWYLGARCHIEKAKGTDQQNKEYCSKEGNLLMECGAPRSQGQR
Experimental: as §1

[8] = system: T8, Rep nickase domain of tomato yellow leaf curl virus
T8 sequence (residues 1-136 of Rep, tag left off): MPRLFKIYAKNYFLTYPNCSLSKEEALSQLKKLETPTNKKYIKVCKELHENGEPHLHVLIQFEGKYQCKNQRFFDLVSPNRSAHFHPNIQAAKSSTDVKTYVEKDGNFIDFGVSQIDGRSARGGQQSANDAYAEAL
Experimental: as §1

[9] = system: T9, Rep nickase domain of wheat dwarf virus
T9 sequence (residues 1-137 of Rep, tag left off): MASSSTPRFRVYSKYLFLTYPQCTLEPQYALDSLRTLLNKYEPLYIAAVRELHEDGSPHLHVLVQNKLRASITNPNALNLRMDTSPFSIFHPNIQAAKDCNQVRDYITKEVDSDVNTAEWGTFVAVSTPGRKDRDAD
Experimental: as §1

| Sequence | uncleaved DNA left (log2) [1] | uncleaved DNA left (log2) [2] | uncleaved DNA left (log2) [3] | uncleaved DNA left (log2) [4] | uncleaved DNA left (log2) [5] | uncleaved DNA left (log2) [6] | uncleaved DNA left (log2) [7] | uncleaved DNA left (log2) [8] | uncleaved DNA left (log2) [9] |
| --- | --- | --- | --- | --- | --- | --- | --- | --- | --- |
| CAATATT | -4.28 | -4.25 | -5.41 | -4.39 | -3.73 | -4.11 | -4.43 | -3.58 | -4.8 |
| CACATTG | -0.0312 | -0.033 | -0.718 | -0.604 | -0.0432 | -1.19 | 0.113 | 0.133 | -0.029 |
| TCTAAGT | 0.0651 | 0.0558 | 0.0974 | -0.281 | -0.0279 | -0.766 | -0.0539 | -0.00128 | -0.0102 |
| CAGAGCG | -0.071 | -0.0709 | -0.848 | -0.373 | 0.0185 | -1.18 | 0.0465 | 0.0505 | -0.155 |
| GGGCCAT | -0.26 | -0.074 | 0.814 | 1.94 | -0.164 | 2.25 | 0.159 | -0.201 | 0.0458 |
| GCAGGGC | 0.0294 | 0.0198 | 0.151 | 0.546 | 0.0418 | -0.0967 | 0.166 | 0.0359 | 0.0173 |
| GTAGAGG | -0.029 | -0.0407 | 0.366 | 1.05 | 0.00872 | 1.15 | -0.059 | -0.0308 | 0.049 |
| TATAGAC | 0.104 | 0.00489 | 0.292 | 0.521 | 0.0798 | 0.0846 | 0.0967 | 0.112 | 0.0823 |
| AAAGTGG | 0.0827 | 0.024 | -0.0363 | -0.00337 | 0.0486 | -0.712 | 0.144 | 0.0232 | -0.0471 |
| CTGCTTG | 0.245 | 0.0332 | -0.393 | -0.864 | 0.063 | -0.891 | 0.158 | 0.0894 | -0.0158 |
| GTTTCTT | -0.269 | 0.0867 | 0.337 | 0.61 | -0.0483 | 1.74 | -0.402 | 0.158 | 0.118 |
| GGTCAAT | -0.00115 | 0.0741 | 0.637 | 1.65 | -0.0178 | 2.11 | 0.0287 | 0.148 | 0.0944 |
| CCCGCGG | -0.0183 | 0.0459 | 0.462 | 1.29 | 0.067 | 1.72 | 0.00937 | -0.221 | 0.0938 |
| TGCGGAT | -0.0938 | -0.179 | 0.152 | 1.15 | -0.147 | 1.5 | 0.13 | -0.113 | -0.0397 |
| AAGGGAT | -0.0911 | -0.123 | 0.178 | 1.52 | -0.142 | 1.73 | 0.036 | -0.269 | -0.0941 |
